Test results as given in the RNAGym collection of RNA variant scans (doi:10.7554/elife.90254).
Read counts are not given, so values of variants with three or more changes are uncertain.

B1: LINE1-mini (parent)
chain: GGCAGAGCUCAACACAGCGUGGCAAAGUGGCUGUGGCUAGACUGCC

Variants of: B1
Experiment: self-cleavage, relative activity (ratio to wild type); higher = more cleavage; in vitro, sequencing; the parent is a self-cleaving ribozyme

Row | Variant | self-cleavage
1 | A6C A24G U34G | 0.03
2 | A6C A24U G33A C42U | 0.05
3 | A6C A25C A41G G44U C46U | 0.15
4 | A6C A25C G36A | 0.04
5 | A6C A25G G27C C42G | 0
6 | A6C A25U G29A U34G | 0.4
7 | A6C A25U G29A U38C | 1.01
8 | A6C A26C U32A G44C | 0.02
9 | A6C A26C U43G C45U | 0.02
10 | A6C A26U G35C G40C | 0.07
11 | A6C A39C C45A | 0.07
12 | A6C C8A A12U G33A | 0.02
13 | A6C C8A A16C G17A C31U | 0.07
14 | A6C C8A A26C U43A | 0.15
15 | A6C C8A C13A | 0.27
16 | A6C C8A C15G G27A U34C | 0.27
17 | A6C C8A C23U C42U | 0
18 | A6C C8A G30U U38A G40C | 0.2
19 | A6C C8A U38G G40C | 0.04
20 | A6C C8G A12G C42U | 0.03
21 | A6C C8G C10U G21A C23U G40U C42U | 0
22 | A6C C8G C13U G17A G35U C42U | 0.18
23 | A6C C8U A12C A16G C37U | 0.01
24 | A6C C8U A14C | 0.22

Row | Variant | self-cleavage
25 | A6C C8U A14C G27C G36A A41U | 0.05
26 | A6C C8U U9C G33U U34C | 0.1
27 | A6C C8U U32G | 0.08
28 | A6C C10A A14C A16U C46U | 1.63
29 | A6C C10A A16C U20A G30C | 0.01
30 | A6C C10A A25C A39G | 0.01
31 | A6C C10A C18A U43C G44U | 0.06
32 | A6C C10A C18G | 0.04
33 | A6C C10A G17C G35C | 0.01
34 | A6C C10A G17U U38A | 0.01
35 | A6C C10A G19U C37U C42U G44U | 0.01
36 | A6C C10A G29U | 0.03
37 | A6C C10A U28A | 0.01
38 | A6C C10G A24U G27C U38G | 0.01
39 | A6C C10G G17C C31G G40C | 0.01
40 | A6C C10U A24U A41C | 0.01
41 | A6C C10U G21A A25G U38C | 0.36
42 | A6C C10U G22A C37A U38C | 0.02
43 | A6C C13A C18U | 0.01
44 | A6C C13A G17C C18A C37U | 0.95
45 | A6C C13A G19A G40C A41C | 0.07
46 | A6C C13A G30A G33A | 0.03
47 | A6C C13A G30A U32C | 0.09
48 | A6C C13G A39U | 0.03

Row | Variant | self-cleavage
49 | A6C C13G C46G | 0.08
50 | A6C C13U A39U A41C | 0.04
51 | A6C C13U G17C U32C | 0.15
52 | A6C C13U G19C C31G U34G | 0.03
53 | A6C C13U G40A | 0.13
54 | A6C C15A G17U G19C U20G | 0.01
55 | A6C C15A G22A C23G | 0.1
56 | A6C C15G C18A | 0.06
57 | A6C C15U A25C U34G | 0.01
58 | A6C C15U C18U G44U | 0.02
59 | A6C C15U C31U A41C C45U | 0.06
60 | A6C C15U G22U U43C | 0.02
61 | A6C C15U G30C A39C C46G | 0.06
62 | A6C C18A U28C | 0.04
63 | A6C C18G A24C | 0.09
64 | A6C C18U C23U C46U | 0.41
65 | A6C C18U G27A G30U G44C | 0.18
66 | A6C C23A A26U C45A | 0.25
67 | A6C C23A C31A G35A | 0.01
68 | A6C C23A U28C C45G | 0.49
69 | A6C C23A U43G C45U | 0.02
70 | A6C C23G A39C | 0.03
71 | A6C C23G A39C C45U | 0.72
72 | A6C C23G C31G | 0.03

Row | Variant | self-cleavage
73 | A6C C23U U28C | 0.99
74 | A6C C31A C42A | 0.03
75 | A6C C31A G36C G44C | 0.07
76 | A6C C31U U38G G44U | 0.03
77 | A6C C31U U43A | 0.02
78 | A6C C37A C45A | 0.39
79 | A6C C37A G44U | 0.11
80 | A6C C42A C45U | 0.07
81 | A6C C45G C46G | 0.08
82 | A6C G7A A16U G22U U43C | 0
83 | A6C G7A A39U | 0.08
84 | A6C G7A C8A | 0.12
85 | A6C G7A C8U C23G | 0.15
86 | A6C G7A C10G A26C A39G | 0
87 | A6C G7A C13G | 0.34
88 | A6C G7A C13U C18U G19C G29C G30A | 0.1
89 | A6C G7A C15A C18U G21C | 0.06
90 | A6C G7A C42U | 0.22
91 | A6C G7A U20C C42A | 0.1
92 | A6C G7C G17C | 0.12
93 | A6C G7C G17C U32C G33A U43C | 0.02
94 | A6C G7C G36A C46G | 0.17
95 | A6C G7U C15G G44C | 0.02
96 | A6C G7U C15U G19A C23G A25C G33U G35C U38A | 0.01

Row | Variant | self-cleavage
97 | A6C G17A C45G | 0
98 | A6C G17A G35C A41G | 0.03
99 | A6C G17C G29A | 0.04
100 | A6C G17U A26C | 0.97
101 | A6C G17U A26U | 0.03
102 | A6C G17U C42A | 0.08
103 | A6C G17U G19U A26G U32C G35A | 0
104 | A6C G17U U20C C37G | 0.04
105 | A6C G17U U32A G36A C37A | 0.13
106 | A6C G19A C31G | 0.14
107 | A6C G19A G33C | 0.35
108 | A6C G19C G27A | 0.21
109 | A6C G21A A25U U32C G44U | 0.06
110 | A6C G21A C45U | 0.65
111 | A6C G21U A26U G29C | 0.66
112 | A6C G21U U32A | 0.02
113 | A6C G21U U34G G40C | 0.03
114 | A6C G22C G36C | 0.04
115 | A6C G22C G40U | 0.02
116 | A6C G22U A24G | 0.44
117 | A6C G27A G29U | 0.28
118 | A6C G27A U32G | 0.03
119 | A6C G27C A39U | 0.06
120 | A6C G27C C45G | 0.1

Row | Variant | self-cleavage
121 | A6C G27C G29C | 0.03
122 | A6C G27C G36U | 0.02
123 | A6C G27U A41U | 0.15
124 | A6C G27U G29C C46G | 0.17
125 | A6C G29C G36A G40U | 0.07
126 | A6C G29U G35U U38G | 0.02
127 | A6C G30C G35U | 0.19
128 | A6C G30U U43C | 0.04
129 | A6C G33A U43A | 0.03
130 | A6C G33U U38C C42U | 0.02
131 | A6C G35U C42U | 0.31
132 | A6C G35U C45U | 0.03
133 | A6C G36A C46G | 0.05
134 | A6C G36A G40U G44U | 0.04
135 | A6C G36C C42A C46U | 0.04
136 | A6C G36U A41G | 0.01
137 | A6C G40U U43C | 0.12
138 | A6C G44C C45A | 0.37
139 | A6C U9A A24U G33U G36A | 0.09
140 | A6C U9A C10G U34G | 0.04
141 | A6C U9A G21U | 0.18
142 | A6C U9A G30U | 0.07
143 | A6C U9A U43A | 0.04
144 | A6C U9C A12G | 0.04

Row | Variant | self-cleavage
145 | A6C U9C A39U | 0.04
146 | A6C U9C C10G C18U U32C G40C | 0
147 | A6C U9C C37U A41C | 0.03
148 | A6C U9C G21A C23U C42A C46G | 0.06
149 | A6C U20A C37U | 0.03
150 | A6C U20A U32G | 0.02
151 | A6C U20C G22A | 0.4
152 | A6C U20G C37U A41G | 0.04
153 | A6C U20G G21A C23G A24U C37U | 0
154 | A6C U28A G30U C37G U38C | 0
155 | A6C U28A G33U A39G | 0.01
156 | A6C U28G U34A G36U | 0.02
157 | A6C U32A C42U | 0.01
158 | A6C U32A U34A U43C | 0.02
159 | A6C U34A G35A | 0.05
160 | A6C U38G G44U | 0.02
161 | A6G A11C A16C C46U | 0.02
162 | A6G A11G A14G G19C | 0.01
163 | A6G A11G A16G G22A A41U | 0
164 | A6G A11G G21U | 0.02
165 | A6G A11U A26C U38A A39G | 0
166 | A6G A11U C15G A16G G21C U28A | 0.02
167 | A6G A11U C18A C37U U38A | 0.01
